# Reference: the supplement of paper PMC8728848
# Some of the results follow.
# B1: Blon2468mut (Bifidobacterium longum) (protein)
# chain: MTFIKQMMPRYVASMTAGIVAAAMAATCAFAPVANADAVSPTQETIQSTGRHFMVYYRAWRDVTMKGVNTDLPDDNWISMYDIPYGVDVVNIFSYVPSGQEEQAQPFYDKLKSDYAPYLHSRGIKLVRGIDYTGVAVNGFRTFMKEQNKTESEATEADYDAYAKQVIDKYMISVGLDGLDIDMQAHPNDADVKISDNVIRALSKHIGPKSAKPDTTMFLYDTNGSYLNPFKNVAECFDYVAYQQYGSSSDRTARAAADYQPYIGNEFVPGLTFPEEGDMNNRWYDATEPYEESHFYQVASYVREHNLGGMFVYALDRDGRNYDEDLRRIVPSNLLWTKTAIAESEGMALDTAKTAANHYLDRMSLRQVIDDNAASADKARDMVGKAANLYETNKAVLGGDYGEGFSNTYDPTLEAGLLGIDISVLQQQIDKSSEIIGADTAESDAKTALRMARDAAIDGLTGKIYTADQVSAWSQALKAALDATVPVPTPDSTDQNGNRDKVTNHKVQGQPKQLSATGISTDIIVAVGVTLAIAGVALSLSRKLS
# Columns and labels:
# Experiment in all cases: glycan array binding signal (z-score within array); higher = stronger binding
# Settings in all cases: glycan notation: IUPAC condensed, linker removed
# Fuc(a1-2)Gal = target: Fuc(a1-2)Gal
# In short: (§1)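 Negative Z-scores can be read as non-binding. The Z-score is calculated within each array and then averaged across arrays of one protein sequence at different concentrations or buffers and across linkers. Arrays, 3228 in all, were curated from the Consortium for Functional Glycomics database and kept only where the protein sequence was available.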
# Fuc(a1-2)Gal(b1-3)GalNAc = target: Fuc(a1-2)Gal(b1-3)GalNAc
# In short: as §1
# [1] = target: Fuc(a1-2)Gal(b1-3)GalNAc(a1-3)[Fuc(a1-2)]Gal(b1-4)Glc
# In short: as §1
# [2] = target: Fuc(a1-2)Gal(b1-3)GalNAc(a1-3)[Fuc(a1-2)]Gal(b1-4)GlcNAc
# In short: as §1
# [3] = target: Fuc(a1-2)Gal(b1-3)GalNAc(b1-3)Gal
# In short: as §1
# [4] = target: Fuc(a1-2)Gal(b1-3)GalNAc(b1-3)Gal(a1-4)Gal(b1-4)Glc
# In short: as §1
# [5] = target: Fuc(a1-2)Gal(b1-3)GalNAc(b1-4)[Neu5Ac(a2-3)]Gal(b1-4)Glc
# In short: as §1
# Fuc(a1-2)Gal(b1-3)GlcNAc = target: Fuc(a1-2)Gal(b1-3)GlcNAc
# In short: as §1
# [6] = target: Fuc(a1-2)Gal(b1-3)GlcNAc(b1-2)Man(a1-3)[Fuc(a1-2)Gal(b1-3)GlcNAc(b1-2)Man(a1-6)]Man(b1-4)GlcNAc(b1-4)GlcNAc
# In short: as §1
# [7] = target: Fuc(a1-2)Gal(b1-3)GlcNAc(b1-2)Man(a1-3)[Fuc(a1-2)Gal(b1-3)GlcNAc(b1-2)Man(a1-6)]Man(b1-4)GlcNAc(b1-4)[Fuc(a1-6)]GlcNAc
# In short: as §1
# [8] = target: Fuc(a1-2)Gal(b1-3)GlcNAc(b1-3)Gal(b1-4)Glc
# In short: as §1
# [9] = target: Fuc(a1-2)Gal(b1-3)GlcNAc(b1-3)GalNAc
# In short: as §1
# [10] = target: Fuc(a1-2)Gal(b1-3)GlcNAc(b1-3)[Fuc(a1-2)Gal(b1-3)GlcNAc(b1-6)]GalNAc
# In short: as §1
# [11] = target: Fuc(a1-2)Gal(b1-3)GlcNAc(b1-3)[Gal(b1-4)GlcNAc(b1-6)]Gal(b1-4)Glc
# In short: as §1
# [12] = target: Fuc(a1-2)Gal(b1-3)GlcNAc(b1-3)[Neu5Ac(a2-6)Gal(b1-4)GlcNAc(b1-6)]Gal(b1-4)Glc
# In short: as §1
# [13] = target: Fuc(a1-2)Gal(b1-3)GlcNAc6S
# In short: as §1
# [14] = target: Fuc(a1-2)Gal(b1-3)[Fuc(a1-4)]GlcNAc
# In short: as §1
# [15] = target: Fuc(a1-2)Gal(b1-3)[Fuc(a1-4)]GlcNAc(b1-2)Man(a1-3)[Fuc(a1-2)Gal(b1-3)[Fuc(a1-4)]GlcNAc(b1-2)Man(a1-3)]Man(b1-4)GlcNAc(b1-4)GlcNAc
# In short: as §1
# [16] = target: Fuc(a1-2)Gal(b1-3)[Fuc(a1-4)]GlcNAc(b1-2)Man(a1-3)[Fuc(a1-2)Gal(b1-3)[Fuc(a1-4)]GlcNAc(b1-2)Man(a1-6)]Man(b1-4)GlcNAc(b1-4)[Fuc(a1-6)]GlcNAc(b1-4)[Fuc(a1-6)]GlcNAc
# In short: as §1
# [17] = target: Fuc(a1-2)Gal(b1-3)[Fuc(a1-4)]GlcNAc(b1-3)[Fuc(a1-3)[Gal(b1-4)]GlcNAc(b1-6)]Gal(b1-4)Glc
# In short: as §1
# [18] = target: Fuc(a1-2)Gal(b1-3)[Fuc(a1-4)]GlcNAc(b1-3)[Gal(b1-4)GlcNAc(b1-6)]Gal(b1-4)Glc
# In short: as §1
# Fuc(a1-2)Gal(b1-4)Glc = target: Fuc(a1-2)Gal(b1-4)Glc
# In short: as §1
# Fuc(a1-2)Gal(b1-4)Glc6S = target: Fuc(a1-2)Gal(b1-4)Glc6S
# In short: as §1
# Fuc(a1-2)Gal(b1-4)GlcNAc = target: Fuc(a1-2)Gal(b1-4)GlcNAc
# In short: as §1
# [19] = target: Fuc(a1-2)Gal(b1-4)GlcNAc(b1-2)Man
# In short: as §1
# [20] = target: Fuc(a1-2)Gal(b1-4)GlcNAc(b1-2)Man(a1-3)[Fuc(a1-2)Gal(b1-4)GlcNAc(b1-2)Man(a1-6)]Man(b1-4)GlcNAc(b1-4)GlcNAc
# In short: as §1
# [21] = target: Fuc(a1-2)Gal(b1-4)GlcNAc(b1-2)Man(a1-3)[Fuc(a1-2)Gal(b1-4)GlcNAc(b1-2)Man(a1-6)]Man(b1-4)GlcNAc(b1-4)[Fuc(a1-6)]GlcNAc
# In short: as §1
# [22] = target: Fuc(a1-2)Gal(b1-4)GlcNAc(b1-2)[Fuc(a1-2)Gal(b1-4)GlcNAc(b1-4)]Man(a1-3)[Fuc(a1-2)Gal(b1-4)GlcNAc(b1-2)Man(a1-6)]Man(b1-4)GlcNAc(b1-4)GlcNAc
# In short: as §1
# [23] = target: Fuc(a1-2)Gal(b1-4)GlcNAc(b1-3)Gal(b1-4)GlcNAc
# In short: as §1
# [24] = target: Fuc(a1-2)Gal(b1-4)GlcNAc(b1-3)Gal(b1-4)GlcNAc(b1-2)Man(a1-3)[Fuc(a1-2)Gal(b1-4)GlcNAc(b1-3)Gal(b1-4)GlcNAc(b1-2)Man(a1-6)]Man(b1-4)GlcNAc(b1-4)GlcNAc
# In short: as §1
binder,measurement,setting,value
B1,glycan array binding signal (z-score),Fuc(a1-2)Gal,-0.059
same,glycan array binding signal (z-score),Fuc(a1-2)Gal(b1-3)GalNAc,-0.061
same,glycan array binding signal (z-score),[1],-0.098
same,glycan array binding signal (z-score),[2],-0.05
same,glycan array binding signal (z-score),[3],-0.063
same,glycan array binding signal (z-score),[4],-0.073
same,glycan array binding signal (z-score),[5],-0.049
same,glycan array binding signal (z-score),Fuc(a1-2)Gal(b1-3)GlcNAc,-0.046
same,glycan array binding signal (z-score),[6],-0.036
same,glycan array binding signal (z-score),[7],-0.026
same,glycan array binding signal (z-score),[8],-0.083
same,glycan array binding signal (z-score),[9],-0.084
same,glycan array binding signal (z-score),[10],-0.065
same,glycan array binding signal (z-score),[11],-0.084
same,glycan array binding signal (z-score),[12],-0.067
same,glycan array binding signal (z-score),[13],-0.052
same,glycan array binding signal (z-score),[14],-0.055
same,glycan array binding signal (z-score),[15],-0.053
same,glycan array binding signal (z-score),[16],-0.074
same,glycan array binding signal (z-score),[17],-0.099
same,glycan array binding signal (z-score),[18],-0.071
same,glycan array binding signal (z-score),Fuc(a1-2)Gal(b1-4)Glc,-0.043
same,glycan array binding signal (z-score),Fuc(a1-2)Gal(b1-4)Glc6S,-0.041
same,glycan array binding signal (z-score),Fuc(a1-2)Gal(b1-4)GlcNAc,-0.053
same,glycan array binding signal (z-score),[19],-0.079
same,glycan array binding signal (z-score),[20],-0.068
same,glycan array binding signal (z-score),[21],-0.089
same,glycan array binding signal (z-score),[22],-0.045
same,glycan array binding signal (z-score),[23],-0.064
same,glycan array binding signal (z-score),[24],0.003
